# According to PubChem BioAssay AID686978 (National Center for Advancing Translational Sciences (NCATS), 2013):
# About 64,000 (15%) of roughly 420,000 compounds were called active. The inconclusive results got no clear call from the source; some entries with a clear call stand among them for comparison. Calls come from the whole dose curve; as a rule, active = well fitted inhibition curve with a large enough effect; inconclusive = small, poorly fitted or top-dose-only effect; inactive = flat fitted curve, though single readings scatter. No potency is given beside an inconclusive call; the fits are too rough.
# Assay: qHTS for Inhibitors of human tyrosyl-DNA phosphodiesterase 1 (TDP1): qHTS in cells in absence of CPT; note: nearly all actives have a fitted effect of over 55% in size
# Settings: DT40 Tdp1-/- hTDP1 cells, no CPT, ATP luminescence, 48 h; activity change, negative = growth inhibition: at 46.2 µM (top of the series) unless noted
# Method in brief: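 Camptothecin absent (DMSO only). Human TDP1-complemented DT40 knockout cells, 400 cells/well, 37 °C for minimum 48 hr; ATP measured via CellTiter-Glo, 30 min dark incubation, luminescence.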
# % is set by controls: 0 for no effect and ±100 for the full control effect; potency is the fitted concentration of half-maximal effect; tags give direction and shape of the fitted curve.
Compound,Potency,"activity change, negative = growth inhibition"
CCOC(=O)N1CCN(C(=S)Nc2ccc(C)cc2)CC1,inactive,
Cc1ccc(C)c(N2CCN(CCCNC(=O)c3cnn(-c4ccccc4)c3C3CCN(C(=O)OC(C)(C)C)CC3)CC2)c1,active: 4.61 µM,
Cc1ccc(Cn2c(=O)c3ccccc3n3nc(C)cc23)cc1,inactive,
CCCCNC(=O)CCn1ccc2cc(S(=O)(=O)N3CCCC3)ccc21,"inconclusive [inhibitor, single point]",
O=C(c1cccs1)N1N=C(c2ccc(O)cc2)CC1c1ccccc1 (centres undefined),"inconclusive [inhibitor, partial curve]",
Cc1ccc2c(CN(C)Cc3ccccc3)cc(=O)oc2c1C,active: 14.6 µM,
Cc1c(C(=O)N(C)c2ccccc2Cl)cnn1-c1ccccc1,"inconclusive [inhibitor, single point]",
O=C(Nc1cccc(C(F)(F)F)c1)c1cc(-c2cccs2)on1,,inconclusive: -32.7% [inhibitor]
COc1ccc(C2C(CN3CCOCC3)C(=O)N2c2ccccc2)cc1 (centres undefined),"inconclusive [inhibitor, single point]",
CCOc1ccccc1N1CC(C(=O)Nc2ccc(S(=O)(=O)N3CCCCC3)cc2)CC1=O (centres undefined),active: 13 µM,
Cc1ccc(S(=O)(=O)N(C)c2ccc(OC(=O)c3cccs3)cc2)cc1,"inconclusive [inhibitor, partial curve]",
Nc1cccc(-n2cccc2)c1,inactive,
CCN(CC)S(=O)(=O)c1ccc2oc(C(=O)N3CCCCCC3)c(C)c2c1,active: 9.2 µM,
Cc1c(NC(=O)c2cccc(-c3cc4ccccc4oc3=O)c2)cccc1-c1nc2ncccc2o1,active: 20.6 µM,
COc1ccc(CN2[C@@H](CC(C)=O)c3cc(C(F)(F)F)ccc3S2(=O)=O)cc1,active: 20.6 µM,
Cc1cccc(NC(=O)CSCC(=O)Nc2ccccc2C(=O)N2CCCCC2)c1,"inconclusive [inhibitor, single point]",
COc1ccc(-c2nc3ccc(Br)cn3c2Cc2ccccc2C(F)(F)F)cc1OC,"inconclusive [inhibitor, single point]",
O=C1O[C@@H](c2ccccc2)C[C@@H](O)[C@H](O)CCCc2ccccc21,"inconclusive [inhibitor, partial curve]",
CC(=O)C1CCC2C(CCC3=CC(=O)CCC32)C1 (centres undefined),"inconclusive [inhibitor, single point]",
COc1ccc(-n2cc(CNC3CCC(O)CC3)c(-c3cccc(F)c3)n2)cc1 (centres undefined),active: 20.6 µM,
Cc1cc(C(=O)NCc2ccco2)cs1,inactive,
O=S(=O)(c1ccccc1)c1nc(-c2ccccc2)oc1N1CCCCC1,active: 16.4 µM,
CCOc1ccc(C(=O)Nc2ccc3c(c2)OCCO3)cc1,inactive,
O=C(NC1CCN(Cc2ccccc2)CC1)c1ccccc1NS(=O)(=O)c1ccc(F)cc1,"inconclusive [inhibitor, single point]",
C/C(=N\NC(=S)NCc1ccccc1)c1ccc2c(c1)OCCO2,active: 23.1 µM,

Compound,Potency,"activity change, negative = growth inhibition"
O=C(CN1CCCCC1)Nc1cc(Cl)ccc1Oc1ccccc1,"inconclusive [inhibitor, single point]",
Cc1cccc(-c2noc(-c3ccccc3OCC(=O)Nc3ccccc3[N+](=O)[O-])n2)c1,active: 16.4 µM,
Cc1nn(Cc2ccc(Cl)cc2)c(C)c1NC(=O)CCCn1nc(C)c([N+](=O)[O-])c1C,"inconclusive [inhibitor, single point]",
N#C/C(=C\c1cc2c(cc1Br)OCO2)C(=O)NCC1CCCO1 (centres undefined),"inconclusive [inhibitor, single point]",
CCC(=O)N1c2ccc(S(=O)(=O)CCC(=O)NCc3cccs3)cc2CC1C (centres undefined),"inconclusive [inhibitor, single point]",
CCN(CC)CCCNC(=O)c1cn(CC(C)C)c(=O)c2c1c1ccccc1n2C,inactive,
Cc1ccc(S(=O)(=O)NCc2ccncc2)cc1C(=O)NCC(C)C,"inconclusive [inhibitor, partial curve]",
CNc1nc(-c2ccc(N(C)C)cc2)nc2ccccc12,"inconclusive [inhibitor, single point]",
CC1(c2nnc(-c3ccncc3)o2)CC(c2c(Cl)cccc2Cl)=NO1 (centres undefined),"inconclusive [inhibitor, partial curve]",
COCCNC(=O)CN1C(=O)NC2(CCCc3ccccc32)C1=O (centres undefined),inactive,
CC(NC(=O)CS(=O)(=O)c1ccccc1)c1ccccc1 (centres undefined),inactive,
COc1ccccc1CNC(=O)C1CCN(S(=O)(=O)c2ccc3c(c2)NC(=O)CO3)CC1,inactive,
COc1ccc(Cc2noc(CN(C)CCc3ccccc3)n2)cc1OC,"inconclusive [inhibitor, partial curve, poor fit]",
COc1ccc(-c2nc3scc(CCNS(=O)(=O)c4ccc(Oc5ccccc5)cc4)n3n2)cc1,"inconclusive [inhibitor, single point]",
CC(=O)c1cccc(NC(=O)[C@H]2O[C@@H]3OC(C)(C)O[C@@H]3[C@H]3OC(C)(C)O[C@H]32)c1,inactive,
CCOC(=O)COc1ccc2c(c1)C(=O)CC1(CCN(C(C)=O)CC1)O2,inactive,
O=C(CSc1nnc(C2CC2)n1-c1ccccc1)NCCN1C(=O)CSC1=O,inactive,
O=C(/N=C1/c2ccccc2CN1c1ccccc1)Nc1ccccc1,,inconclusive: -32.1% [inhibitor]
COC(=O)c1sccc1-n1cccc1C(=O)N1CCOCC1,inactive,
CCCCn1c(CNC(=O)CC)nc2ccccc21,"inconclusive [inhibitor, single point]",
Cc1cccc(C)c1OCc1nnc(SCC(=O)Nc2ccc(N3CCOCC3)cc2)o1,inactive,
Cc1onc(-c2ccccc2)c1C(=O)N/N=C/c1c[nH]c2ccccc12,,inconclusive: -35.6% [inhibitor]
Cc1ccc(NC(=O)CSc2nnc(-c3ccncc3)n2C)cc1S(=O)(=O)N1CCOCC1,inactive,
CC(C)CCNc1nc(N)c([N+](=O)[O-])c(NC2CCCCC2)n1,"inconclusive [inhibitor, partial curve]",
CCC1CCCN1Cn1cnc2c([nH]c3ccc(Cl)cc32)c1=O (centres undefined),"inconclusive [inhibitor, single point]",

Compound,Potency,"activity change, negative = growth inhibition"
COc1cccc(C(=O)N2[C@H](COCc3ccccc3)C=CS2(=O)=O)c1,"inconclusive [inhibitor, single point]",
C=C1C=C(C(F)F)n2ncc(C(=O)NCCc3ccc(Cl)cc3)c2N1,"inconclusive [inhibitor, single point]",
C=CCn1c(CCSCc2ccccc2)n[nH]c1=S,"inconclusive [inhibitor, single point]",
CCCNC(=O)CN(Cc1ccccc1F)S(=O)(=O)c1ccc(C)cc1,inactive,
CCCN1CNc2c(c(=O)[nH]c(=S)n2CCc2ccsc2)C1,"inconclusive [inhibitor, partial curve]",
O=C(CCNC(=O)N1CC(=O)Nc2ccccc21)NCc1ccccc1,inactive,
Cc1cccc(N(CC(=O)NC2CCCCC2)C(=O)c2csnn2)c1,inactive,
CCn1c2c(c(=O)n3ncc(C(=O)N4CCN(c5ccc(C(C)=O)cc5)CC4)c13)CN(Cc1ccc(OC)cc1)CC2,active: 2.59 µM,
Cc1ccc(C)c(-n2c(CNC(=O)c3ccco3)nnc2SCC(=O)N2CCc3ccccc32)c1,"inconclusive [inhibitor, partial curve]",
Cc1ccc(C)c(N2C(=O)N(Cc3cccc(C(F)(F)F)c3)c3ccccc3S2(=O)=O)c1,"inconclusive [inhibitor, single point]",
O=C(CSc1nnc2c(Cl)cc(C(F)(F)F)cn12)NCc1ccc(F)cc1,inactive,
Cn1c(=S)c2[nH]c(SCC3CCCO3)nc2n(C)c1=O (centres undefined),active: 1.16 µM,
O=C(Nc1nccs1)c1sc2cc(Cl)ccc2c1Cl,"inconclusive [inhibitor, single point]",
CN(C)CCCCCN(C)Cc1cc2ccccc2o1,"inconclusive [inhibitor, single point]",
COc1cccc2cc(C(=O)Oc3ccccc3)c(=O)oc12,inactive,
COC(=O)c1sccc1-c1ccc(C(=O)Nc2cccnc2)o1,"inconclusive [inhibitor, single point]",
O=C(CCc1nnc(-c2ccc(-c3ccccc3)cc2)o1)NCCc1ccccn1,"inconclusive [inhibitor, single point]",
COc1ccc(-c2noc(CNC(=O)c3ccoc3C)n2)cc1OC,inactive,
NS(=O)(=O)c1ccc(CCNC(=O)c2ccccc2Cc2ccccc2)cc1,"inconclusive [inhibitor, single point]",
CC1(C)C(C(N)=O)C(=O)NC(=O)C1C(N)=O (centres undefined),"inconclusive [inhibitor, partial curve, poor fit]",
Cc1cc(C)cc(NC(=O)Cn2c(=O)oc3cc(S(=O)(=O)N4CCC(C)CC4)ccc32)c1,active: 14.6 µM,
CCn1c(=O)n(CC)c2cc(N3CCCC3)c(NC(=O)c3ccccc3)cc21,active: 9.2 µM,
CNC1(c2nnnn2-c2ccccc2C)CCOC(C)(C)C1 (centres undefined),"inconclusive [inhibitor, single point]",
CCC1=C(OC(=O)N(CC)CC)N2C(=O)OC(=NCCc3c[nH]c4ccccc34)[C@]2(C)[C@H]2C1=CC[C@H]1C(=O)N(CC(=O)OC)C(=O)[C@H]12,"inconclusive [inhibitor, partial curve]",
